Test results published in the supplement of paper PMC9433436.
± gives the standard deviation of the averaged measurements. Whole data set: some 4,100 sequences, median “relative kcat/Km (krel) vs genomic leader AAAGAU” near 1.7, cut for the highest 2% near 6.5. The entries are a selection whose mix differs from that of the whole data set.

Target: T1, E. coli RNase P holoenzyme (M1 P RNA + rnpA protein) (UniProt P0A7Y8)
T1 sequence: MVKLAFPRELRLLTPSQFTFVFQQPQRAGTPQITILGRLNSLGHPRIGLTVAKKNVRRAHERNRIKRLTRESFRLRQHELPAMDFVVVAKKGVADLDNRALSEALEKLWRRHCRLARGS
Experiment: relative kcat/Km (krel) vs genomic leader AAAGAU (relative (reference leader = 1)); higher = faster RNase P cleavage
Method: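 HTS-Kin: a pool of ptRNA-Met (21C construct) with all 4096 combinations of 5' leader nucleotides N(-6) to N(-1) was processed in vitro by E. coli RNase P (P RNA + rnpA/C5 protein) under multiple-turnover conditions at 37 C, pH 8, 17.5 mM MgCl2. Residual substrate was Illumina-sequenced at several fractions reacted, and relative kcat/Km (krel) was computed by internal competition kinetics, calibrated to the genomic leader (AAAGAU = 1). The listed hexamer is the varied N(-6)..N(-1) leader (DNA letters), and it sits between a fixed 5' stem-loop flank (GCAUGCACGAAAGUGCGUGCUAUGAA) and the mature tRNA-Met starting GGCUACGUAGCUCAGUUGG. Two technical replicates are averaged.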

[1] = fraction of substrate reacted: ~26-29% (28.66% repeat 1, 26.4% repeat 2)
[2] = fraction of substrate reacted: ~9-10% (9.79% repeat 1, 9.1% repeat 2)
[3] = fraction of substrate reacted: ~13-16% (15.68% repeat 1, 13.17% repeat 2)

Row | Sequence | relative kcat/Km [1] | relative kcat/Km [2] | relative kcat/Km [3]
1 | ATAAGG | 1.16 ± 0.062 |  | 
2 | GCATAT | 4.59 ± 2.3 | 2.21 ± 0.23 | 2.98 ± 0.44
3 | ACATAT | 6.5 ± 3.1 | 2.86 ± 0.79 | 4.26 ± 0.58
4 | TGCCCA | 2.73 ± 1.4 | 2.72 ± 0.044 | 1.88 ± 0.82
5 | ATGACG | 1.18 ± 0.18 |  | 
6 | GTGATT | 1.61 ± 0.32 | 2.28 ± 0.43 | 1.58 ± 0.37
7 | ACGTCC | 4.18 ± 1.6 | 2.17 ± 1.1 | 3.58 ± 0.83
8 | GGTGTA | 1.2 ± 0.96 |  | 0.493 ± 0.057
9 | GCGAGC | 0.977 ± 0.47 | 0.191 ± 0.091 | 0.229 ± 0.19
10 | TCTTTG | 1.699 ± 0.016 |  | 0.542 ± 0.4
11 | CTGGAT | 0.85 ± 0.41 |  | 
12 | ACGGGA | 1.44 ± 1.2 |  | 
13 | GTCTGA | 6.97 ± 2.6 | 3.86 ± 1.8 | 4.82 ± 1.2
14 | CAGTAG | 2.83 ± 0.14 | 1.92 ± 1.4 | 1.74 ± 0.43
15 | GGGATC | 1.47 ± 0.93 | 1.19 ± 0.85 | 1.51 ± 0.049
16 | GGCGAT | 2.32 ± 0.83 | 1.24 ± 0.38 | 1.52 ± 0.5
17 | CAACAT | 3.93 ± 1.4 | 2.71 ± 1 | 2.93 ± 0.74
18 | GCTACA | 1.25 ± 0.11 | 0.636 ± 0.073 | 1.03 ± 0.29
19 | CATCAA | 4.59 ± 1.9 | 2.69 ± 0.095 | 3.35 ± 0.32
20 | CCCTCC | 4.21 ± 1.1 | 3.55 ± 1.1 | 3.38 ± 0.94
21 | AGTACA | 3.73 ± 1.9 | 1.8 ± 0.084 | 2.74 ± 0.86
22 | ACTCTA | 1.63 ± 0.17 | 1.31 ± 0.6 | 1.17 ± 0.4
23 | TGTGCC | 1.75 ± 0.24 | 1.63 ± 0.12 | 1.62 ± 0.43

Row | Sequence | relative kcat/Km [1] | relative kcat/Km [2] | relative kcat/Km [3]
24 | GGCACC | 2.04 ± 0.18 | 1.52 ± 1.3 | 1.01 ± 0.24
25 | CTAAGT | 1.61 ± 1.5 |  | 1.43 ± 0.51
26 | TTACTG | 1.08 ± 0.42 |  | 
27 | GAGGAA | 1.79 ± 0.85 | 0.602 ± 0.52 | 0.939 ± 0.076
28 | ACGCCT | 1.87 ± 0.6 | 2.29 ± 0.78 | 1.88 ± 0.059
29 | TTTTTG | 1.62 ± 0.058 |  | 0.524 ± 0.47
30 | TATAAC | 5.05 ± 2 | 2.65 ± 1.4 | 3.12 ± 0.54
31 | AGGAGC | 0.969 ± 0.36 | 1.59 ± 1.1 | 1.02 ± 0.61
32 | ACGATC | 2.33 ± 0.094 | 2.34 ± 1.4 | 1.693 ± 0.0099
33 | AAGTTT | 2.67 ± 1.1 | 2.13 ± 0.53 | 2.04 ± 0.17
34 | CACTAT | 8.37 ± 3.9 | 4.78 ± 1.4 | 6.06 ± 2
35 | AGCCTC | 3.32 ± 1.3 | 2.21 ± 0.56 | 2.38 ± 0.16
36 | TTCGAG | 4.8 ± 1 |  | 1.96 ± 0.07
37 | ACCAAA | 4.37 ± 0.92 | 2.83 ± 2.3 | 3.55 ± 0.63
38 | ACATGG | 0.655 ± 0.37 |  | 0.298 ± 0.088
39 | CAGTAA | 6.07 ± 2 | 3.92 ± 1.4 | 4.428 ± 0.033
40 | GTGGAA | 1.63 ± 1.1 | 1.44 ± 0.63 | 
41 | TCTAGC | 3.56 ± 1.4 | 2.46 ± 0.3 | 2.18 ± 0.1
42 | GCGTAA | 2.5 ± 0.33 | 1.62 ± 0.52 | 1.42 ± 0.16
43 | CCGCTC | 2.86 ± 0.95 | 1.44 ± 1.4 | 2.28 ± 1.4
44 | GACCCT | 3.06 ± 1.1 | 1.62 ± 0.21 | 2.19 ± 0.85
45 | GTAACG | 1.8 ± 0.38 |  | 0.791 ± 0.12
46 | GAGTGG | 0.78 ± 0.41 | 0.249 ± 0.11 | 

Row | Sequence | relative kcat/Km [1] | relative kcat/Km [2] | relative kcat/Km [3]
47 | CAGCCC | 1.99 ± 0.78 | 1.8 ± 0.4 | 1.46 ± 0.23
48 | ACGGCA | 0.61 ± 0.15 |  | 
49 | CCGCGA | 2.09 ± 0.61 | 1.97 ± 0.27 | 2.29 ± 1.1
50 | CTATGG | 0.694 ± 0.17 | 0.695 ± 0.42 | 
51 | AAGAGT | 0.68 ± 0.56 |  | 
52 | CCTACA | 1.9 ± 0.68 | 2.23 ± 1.1 | 1.82 ± 0.36
53 | TGACTC | 2.79 ± 0.73 | 1.6 ± 1.1 | 1.5301 ± 0.0012
54 | GCCATA | 4.67 ± 1.9 | 2.49 ± 0.76 | 2.63 ± 0.3
55 | TAACGA | 4.01 ± 2.1 | 2.21 ± 0.23 | 2.84 ± 0.52
56 | GGCACG | 0.693 ± 0.54 |  | 
57 | GAGCGC | 1.38 ± 0.046 | 0.85 ± 0.13 | 0.587 ± 0.32
58 | AGCGGG | 1.01 ± 0.95 | 0.0931 ± 0.011 | 
59 | CAGTAT | 5.7 ± 2.5 | 2.65 ± 0.36 | 3.77 ± 0.85
60 | GCCCCG | 1.32 ± 0.2 |  | 0.45 ± 0.074
61 | AAAAAT | 1.72 ± 0.37 | 1.72 ± 1.1 | 1.24 ± 0.58
62 | GGAACT | 1.52 ± 0.097 |  | 0.728 ± 0.3
63 | CAATAA | 4.25 ± 1.8 | 2.28 ± 0.27 | 2.951 ± 0.0067
64 | CCTTAG | 2.62 ± 0.3 | 2.17 ± 1.6 | 2.07 ± 0.55
65 | GGCTAT | 2.88 ± 0.85 | 2.25 ± 0.98 | 1.99 ± 0.48
66 | GCGCGT | 1.22 ± 1.2 |  | 
67 | AAGAAA | 2.85 ± 0.63 | 2.38 ± 1.3 | 1.63 ± 0.02
